61 molecules from PubChem BioAssay AID1963576 (National Center for Advancing Translational Sciences (NCATS), 2024) can be followed below.

The structures appear in SMILES notation. Among all 46,000 compounds or so, about 60 (0.1%) were called active. Not shown: some 3% with an inconclusive outcome. The call rests on the fitted dose curve; in most records, active means well fitted inhibition curve with a large enough effect; inconclusive means small, poorly fitted or top-dose-only effect; inactive means no such curve, though single readings can be large or run the other way. The list shows a part of the results.

A short description of the experiment: Primary qHTS assay for Inhibitors of ovarian cancer metastasis using an organotypic tumor microenvironment (TME) model. Further: nearly all actives have a fitted effect of over 65% in size.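 On activity change, negative = inhibition: plate controls were DMSO wells for no effect and tomatine positive control wells for full effect.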 To be noted: SKOV3ip1-GFP adhesion/invasion on 3D omental model, fluorescence; series mostly up to 45.8 µM; activity change, negative = inhibition: at the top concentration. The method in brief: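 A 3D layer of primary human omental fibroblasts, mesothelial cells, fibronectin and collagen I, grown 48 hr, received SKOV3ip1-GFP cells in serum-free medium plus compounds at 0.36-46 umol/L. After 2 hr RT and 16 hr 37 C, fixed adherent GFP cells were counted; normalized to DMSO and tomatine.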
On to `O=C(/C=C/c1ccccc1)N1CCN(Cc2cc(=O)n3nc(-c4ccccc4F)sc3n2)CC1`, for which the call was inactive.
On to `CCOc1ccccc1CNC(=O)C1CCN(C(=O)N2CC(CC)Oc3ccc(C)cc32)CC1` (stereo unspecified), for which the outcome was inactive.
Consider `CC(=O)N1CCc2cc(CNC(=O)Cc3ccc(F)cc3)ccc21`, for which the “activity change, negative = inhibition” value is inactive: -6.12%.
For the molecule `COc1cccc(CNC(=O)C(=O)NCC(c2ccco2)S(=O)(=O)c2cccs2)c1` (stereo unspecified), the “activity change, negative = inhibition” value is inactive: 5.41%.
Same read-out and setting: the same measure for `Cc1c(C(=O)OCCOc2ccccc2)[nH]c2c1C(=O)CC(c1ccccc1)C2` (stereo unspecified): inactive: -3.72%.
As to `O=C(Nc1ccc2nc(SCC(=O)N3CCOCC3)sc2c1)c1cccc(Cl)c1`, the outcome was inactive.
As for `Cc1cc(OCCn2cc(C(=O)c3cccs3)c3ccccc32)ccc1Cl`, the “activity change, negative = inhibition” value is inactive: -5.71%.
As for `CSc1ccc(CCNC(=O)c2ccc(-c3nc(COc4ccccc4)c(C)o3)cc2)cc1`, the molecule was called inactive.
For the molecule `Cc1cccc(N2CCN(CCCNc3ncnc4onc(-c5ccc(Cl)cc5)c34)CC2C)c1` (stereo unspecified), the “activity change, negative = inhibition” value was inactive: -9.68%.
`Cc1nc2c(-c3ccccc3)c(C)nn2c(C)c1CCC(=O)N1CCN(c2ccc(F)cc2)CC1`: the outcome was inactive.
As to `COc1cccc(CNC(=O)CCc2c(C)nc3c(c(C)nn3-c3ccc(C)c(C)c3)c2C)c1`, the “activity change, negative = inhibition” value is inactive: -24.1%.
In the case of `Cc1c(Cl)cccc1NC(=O)COCc1cc(-c2ccc3c(c2)OCO3)on1`, the “activity change, negative = inhibition” value was inactive: -0.823%.
Take `COc1ccc(Cl)cc1N(C)C(=O)c1ccc2c(=O)n3c(nc2c1)CCCCC3`: the “activity change, negative = inhibition” value is inactive: -10.7%.
Same read-out and setting: then `Cc1ccc(Cn2ccn(Cc3ccccc3F)c(=O)c2=O)cc1`, with inactive: 7.88%.
For the molecule `COc1ccc(CCNC(=O)CCn2c(=O)c3ccccc3n(Cc3cc(C)ccc3C)c2=O)cc1OC`, the molecule was called inactive.
Consider `Cc1cc2c(cc1NS(=O)(=O)c1ccc(F)cc1)n(C)c(=O)c(=O)n2C`, for which the “activity change, negative = inhibition” value was inactive: -1.77%.
Same read-out and setting: then `Cc1ccc2nc(-c3ccc(Cl)c(NC(=O)COc4cccc(C)c4C)c3)oc2c1`, with inactive: 3.49%.
Consider `Cc1cccc(NC(=O)c2ccc3snnc3c2)c1`, for which the molecule was classed as inactive.
Consider `CCN1CCOC(=O)C1CC(=O)Nc1cc(C)ccc1OC` (stereo unspecified), for which the “activity change, negative = inhibition” value was inactive: 3.73%.
On the same count and under the same terms, then `CCN(CC)c1ccc(NC(=O)CCS(=O)(=O)c2cc3c(cc2Cl)NC(=O)CO3)c(C)c1`, with inactive: 9.17%.
Take `Cc1ccc2nc(N3CCN(c4cccc(C(F)(F)F)c4)CC3)c3nnnn3c2c1`: the call was inactive.
With `CCc1cccc(C)c1NS(=O)(=O)c1cc2[nH]c(=O)c(=O)[nH]c2cc1C`, the “activity change, negative = inhibition” value was inactive: 10.8%.
The same measure, in the same setting: the same measure for `CCOC(=O)c1sc(NC(=O)/C=C/c2ccc(C(C)C)cc2)c(C(=O)OCC)c1C`: inactive: -2.04%.
`CCCc1cc(=O)[nH]c2nnc(SC(C)CC)n12` (stereo unspecified): the result was inactive.
With `Cc1ccc(C)c(NC(=O)CC2NCCNC2=O)c1` (stereo unspecified), the “activity change, negative = inhibition” value was inactive: 15.4%.
On the same count and under the same terms, then `COc1ccc(N(C(=O)c2ccc(OC)c(OC)c2)S(=O)(=O)c2ccc(Cl)cc2)cc1`, with inactive: 0.314%; and `COc1cccc(NC(=O)CSc2nnc3scc(-c4ccc(Cl)cc4)n23)c1`, with inactive: 2.14%; and `Cc1cc(NS(=O)(=O)c2ccc(NC(=O)c3ccccc3C)cc2)nc(C)n1`, with inactive: 2.12%.
Still for that read-out and setting: then `CCc1ccc(NCc2cc3cc4c(cc3n(CC(=O)Nc3cccc(OC)c3)c2=O)OCO4)cc1`, with inactive: 7.42%.
Turning to `CCc1ccc2ncc3c(-c4ccccc4)nn(-c4ccccc4)c3c2c1`, the molecule was called inactive.
As for `COCCNC(=O)Cn1nc(C)c2c(C)n(-c3ccc(C)cc3)nc2c1=O`, the “activity change, negative = inhibition” value was inactive: -5.64%.
Still for that read-out and setting: then `CCc1nnc(SCC(=O)Nc2ccccc2Cl)nc1CC`, with inactive: -7.87%.
Consider `O=C(CCCCn1c(=O)c2ccccc2n(Cc2ccccc2Cl)c1=O)NCCc1ccccc1`, for which the outcome was inactive.
Regarding `Cc1csc2nc(COC(=O)c3cccc(NC(=O)COc4ccc(Cl)cc4)c3)cc(=O)n12`, the “activity change, negative = inhibition” value is inactive: -1.01%.
On the same count and under the same terms, then `CCCC(C(=O)NCc1cccc(Cl)c1)N1Cc2ccccc2C1=O` (stereo unspecified), with inactive: 14.9%.
In the case of `CCCN(CCC)C(=O)Cn1c(=O)n(-c2cccc(OC)c2)c(=O)c2c3c(sc21)CCCC3`, the outcome was inactive.
Take `Cc1ccn2c(=O)cc(COc3ccc(NC(=O)COc4ccc(Cl)cc4)cc3)nc2c1`: the “activity change, negative = inhibition” value is inactive: 9.65%.
For the molecule `Cc1ccc(NC(=O)C2CCCN(c3nnc(-n4c(C)ccc4C)s3)C2)c(C)c1` (stereo unspecified), the call was inactive.
Regarding `N#Cc1ccccc1Cn1c(=O)n(CCCC(=O)NCc2ccc3c(c2)OCO3)c(=O)c2sccc21`, the “activity change, negative = inhibition” value is inactive: -10.8%.
Still for that read-out and setting: then `O=C(Nc1cccc(C(=O)OCc2cc(=O)n3nc(C4CC4)sc3n2)c1)c1cccc(F)c1`, with inactive: 2.61%; and `COc1cc2c(cc1OC)C(c1ccc(F)cc1)N(c1cccc(C#N)c1)C(=O)C2` (stereo unspecified), with inactive: 3.76%; and `Cc1ccc(CCNC(=O)C(NS(=O)(=O)c2ccc3c(c2)oc(=O)n3C)C(C)C)cc1` (stereo unspecified), with inactive: -7.35%.
As to `CCOC(=O)CSc1ccc2nnc(CCNS(=O)(=O)c3ccccc3)n2n1`, the “activity change, negative = inhibition” value was inactive: -4.07%.
On the same count and under the same terms, then `Cc1ccc(N(CC(=O)N2CCN(c3ccccc3F)CC2)S(=O)(=O)c2c(C)noc2C)cc1`, with inactive: 7.31%.
For `Cc1ccc(N(CC(=O)Nc2cccc(F)c2)S(=O)(=O)c2cccs2)cc1`, the “activity change, negative = inhibition” value was inactive: -3.82%.
Same read-out and setting: the same measure for `COc1ccc(NC(=O)CSc2nncn3c2cc2oc(C)cc23)cc1OC`: inactive: -4.99%.
On to `O=C(NCCc1ccccc1)c1ccc2c(c1)N(Cc1c(F)cccc1Cl)C(=O)CS2`, for which the call was inactive.
For `Cn1c(=O)c(=O)n(C)c2cc(S(=O)(=O)N3CCCC3C(=O)Nc3ccccc3F)ccc21` (stereo unspecified), the “activity change, negative = inhibition” value is inactive: 3.67%.
Same read-out and setting: then `COc1cc2c(cc1OC)C(COc1ccc3c(C)cc(=O)oc3c1)N(C(=O)c1cccc(C)c1)CC2` (stereo unspecified), with inactive: 4.37%; and `COc1ccc(Cn2ccn(Cc3cccc(C)c3)c(=O)c2=O)cc1`, with inactive: -0.907%.
Still for that read-out and setting: then `CCOc1ccc(-n2c(SCC(=O)NCC3CCCO3)nc3c([nH]c4ccccc43)c2=O)cc1` (stereo unspecified), with inactive: -19.1%; and `COCCCNC(=O)CCC(=O)N1Cc2cccc(OC)c2Oc2ncccc21`, with inactive: -2.12%; and `CC(=O)N1CCCc2cc(S(=O)(=O)N3CCC(C(=O)NC4CCC(C)CC4)CC3)ccc21` (stereo unspecified), with inactive: 7.81%.
On the same count and under the same terms, the same measure for `CC1(C(=O)Nc2cccc(Br)c2)Cc2ccccc2C(=O)O1` (stereo unspecified): inactive: -0.836%.
For `CCc1ccc(NC(=O)CSc2nccn2-c2ccc(OC)cc2)cc1`, the “activity change, negative = inhibition” value was inactive: -4.9%.
Same read-out and setting: then `CNC(=O)C1CCC(Cn2c(=O)c3sccc3n(Cc3ccc(F)cc3)c2=O)CC1` (stereo unspecified), with inactive: 3.65%.
As for `Cc1nc(-c2cccc(NC(=O)Nc3ccc([N+](=O)[O-])cc3)c2)no1`, the result was inactive.
Regarding `CCCc1cc(=O)oc2c3c(ccc12)OCN(Cc1ccc(OC)cc1)C3`, the molecule was classed as inactive.
Consider `CCn1c(C(=O)NCc2ccccc2C)cc2oc3ccccc3c21`, for which the “activity change, negative = inhibition” value was inactive: -7%.
On the same count and under the same terms, then `COc1cc(C(=O)N2CCN(c3ccc(Nc4ccc(C)cc4)nn3)CC2)cc(OC)c1OC`, with inactive: -19.6%.
For `Cc1ccc(C(=O)Nc2cccc(OCc3cc(=O)n4c5c(sc4n3)CCCC5)c2)cc1`, the outcome was inactive.
